Measured values from the supplement of paper PMC9174493.
Some of the results follow. Single values of this set are uncertain. Values with irradiation are relative to irradiated vehicle.

Tests used:
A549-Dual [1] = assay: NF-kB reporter (SEAP) activity, viability-corrected, relative to vehicle (fold change vs vehicle); higher = more activation of STING-IRF / NF-kB immune response reporter
A549-Dual [2] = assay: ISRE reporter (Lucia luciferase) activity, viability-corrected, relative to vehicle (fold change vs vehicle); higher = more activation of STING-IRF / NF-kB immune response reporter
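Wherever NF-kB reporter (SEAP) activity, viability-corrected, relative to vehicle is given: viability correction based on the alamar blue assay, with concentrations leaving 10% survival or less dropped.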

Compound | NF-kB reporter (A549-Dual [1]; 0.1 µM, irradiation: 8 Gy/4 fr) | NF-kB reporter (A549-Dual [1]; 0.1 µM, irradiation: none) | NF-kB reporter (A549-Dual [1]; 0.3 µM, irradiation: 8 Gy/4 fr) | NF-kB reporter (A549-Dual [1]; 0.3 µM, irradiation: none) | NF-kB reporter (A549-Dual [1]; 1 µM, irradiation: 8 Gy/4 fr) | NF-kB reporter (A549-Dual [1]; 1 µM, irradiation: none) | NF-kB reporter (A549-Dual [1]; 3 µM, irradiation: 8 Gy/4 fr) | NF-kB reporter (A549-Dual [1]; 3 µM, irradiation: none) | NF-kB reporter (A549-Dual [1]; 10 µM, irradiation: 8 Gy/4 fr) | NF-kB reporter (A549-Dual [1]; 10 µM, irradiation: none) | ISRE reporter (A549-Dual [2]; 0.1 µM, irradiation: 8 Gy/4 fr) | ISRE reporter (A549-Dual [2]; 0.1 µM, irradiation: none) | ISRE reporter (A549-Dual [2]; 0.3 µM, irradiation: 8 Gy/4 fr) | ISRE reporter (A549-Dual [2]; 0.3 µM, irradiation: none) | ISRE reporter (A549-Dual [2]; 1 µM, irradiation: 8 Gy/4 fr) | ISRE reporter (A549-Dual [2]; 1 µM, irradiation: none) | ISRE reporter (A549-Dual [2]; 3 µM, irradiation: 8 Gy/4 fr) | ISRE reporter (A549-Dual [2]; 3 µM, irradiation: none) | ISRE reporter (A549-Dual [2]; 10 µM, irradiation: 8 Gy/4 fr) | ISRE reporter (A549-Dual [2]; 10 µM, irradiation: none)
CC(=O)Oc1ccccc1C(=O)O [Aspirin] | 0.973 | 0.924 | 0.896 | 0.897 | 0.879 | 1.11 | 0.933 | 0.991 | 0.911 | 0.844 | 0.881 | 0.837 | 0.914 | 0.833 | 0.902 | 0.758 | 0.882 | 0.724 | 0.977 | 0.785
CC(Oc1cc(-c2cnn(C3CCNCC3)c2)cnc1N)c1c(Cl)ccc(F)c1Cl (stereo not given) | 1.07 | 0.939 | 1.39 | 0.946 | 1.21 | 1.06 | 0.962 | 1.1 | 0.658 | 0.729 | 1.11 | 1.05 | 1.56 | 1.52 | 1.34 | 3.08 | 0.929 | 3.26 | 0.564 | 0.853
CN(C)c1nc(N(C)C)nc(N(C)C)n1 [Altretamine] | 1.06 | 1.23 | 1.2 | 1.14 | 0.937 | 0.98 | 1.08 | 0.817 | 0.908 | 0.879 | 1.04 | 1.1 | 1.44 | 1.08 | 0.985 | 0.928 | 1.16 | 0.622 | 0.9 | 0.784
CC(C)=CCOc1ccc(/C=C/C(=O)c2ccc(OCC=C(C)C)cc2OCC(=O)O)cc1 [Sofalcone] | 1.05 | 1.17 | 1.07 | 1.18 | 1.27 | 0.986 | 0.972 | 0.938 | 0.663 | 1.02 | 0.899 | 1.06 | 0.889 | 0.846 | 0.939 | 0.819 | 0.805 | 0.898 | 0.754 | 0.936
CCC(=O)OC1(C(=O)CCl)C(C)CC2C3CC(F)C4=CC(=O)C=CC4(C)C3(F)C(O)CC21C (stereo not given) [Halobetasol Propionate] | 0.981 | 0.838 | 1.1 | 0.637 | 1.03 | 0.699 | 0.944 | 0.76 | 0.524 | 1.11 | 0.0654 | 0.184 | 0.0657 | 0.216 | 0.0471 | 0.182 | 0.045 | 0.275 | 0.0587 | 0.282
C#Cc1cccc(Nc2ncnc3cc(OCCOC)c(OCCOC)cc23)c1.Cl [Erlotinib HCl (OSI-744)] | 0.959 | 1.11 | 0.915 | 1.21 | 0.84 | 1.31 | 0.782 | 1.28 | 0.887 | 1.02 | 1.02 | 1.32 | 0.885 | 1.15 | 0.963 | 1.39 | 0.867 | 0.915 | 0.963 | 0.856
CCC(C)n1ncn(-c2ccc(N3CCN(c4ccc(OCC5COC(Cn6cncn6)(c6ccc(Cl)cc6Cl)O5)cc4)CC3)cc2)c1=O (stereo not given) [Itraconazole] | 0.985 | 1.03 | 0.804 | 0.92 | 0.928 | 0.924 | 0.815 | 1 | 0.919 | 0.902 | 0.903 | 1.34 | 0.806 | 0.957 | 0.844 | 1.01 | 0.867 | 0.789 | 0.863 | 0.854
NC(=O)c1cnc2[nH]ccc2c1NC1C2CC3CC1CC(O)(C3)C2 (stereo not given) | 0.947 | 1.22 | 1.02 | 1.33 | 1.27 | 1.06 | 0.771 | 2.89 | 2.59 | 1.23 | 0.578 | 0.857 | 0.624 | 0.423 | 0.349 | 0.373 | 0.377 | 0.397 | 0.0629 | 0.262
CN(C)C/C=C/C(=O)Nc1cc2c(Nc3ccc(F)c(Cl)c3)ncnc2cc1OC1CCOC1.O=C(O)/C=C\C(=O)O.O=C(O)/C=C\C(=O)O (stereo not given) [Afatinib (BIBW2992) Dimaleate] | 0.875 | 1.01 | 0.697 | 1.36 | 0.901 | 1.81 | 0.674 | 1.24 | 0.71 | 0.98 | 0.969 | 0.969 | 0.724 | 0.892 | 0.818 | 0.919 | 0.855 | 0.795 | 0.753 | 0.656
CC(=O)OCC(=O)C1(O)CCC2C3CCC4=CC(=O)CCC4(C)C3C(=O)CC21C (stereo not given) [Cortisone acetate] | 1.11 | 1.2 | 0.903 | 1.6 | 0.891 | 1.68 | 1 | 1.27 | 0.92 | 0.9 | 0.923 | 1.14 | 0.912 | 1.21 | 0.905 | 1.08 | 0.961 | 0.846 | 0.846 | 0.78
CN(C)N=Nc1[nH]cnc1C(N)=O [Dacarbazine] | 0.831 | 1.1 | 0.973 | 1.13 | 0.819 | 0.998 | 0.969 | 0.887 | 0.873 | 0.997 | 1.02 | 1.06 | 1.19 | 1.04 | 0.836 | 1.03 | 0.977 | 0.925 | 0.927 | 1.09
Cl.Nc1ccn(C2OC(CO)C(O)C2(F)F)c(=O)n1 (stereo not given) [Gemcitabine HCl] | 1.34 | 1.93 | 1.17 | 2.44 | 1.26 | 2.56 | 1.07 | 2.04 | 1.27 | 1.79 | 0.542 | 2.22 | 0.446 | 2.8 | 0.523 | 2.34 | 0.433 | 1.57 | 0.31 | 1.27
O=C(O)CCCCC1CCSS1 (stereo not drawn) [(+)-α-Lipoic acid] | 1.05 | 0.957 | 1.34 | 0.728 | 0.955 | 0.859 | 1.21 | 0.991 | 0.772 | 0.834 | 1.04 | 0.766 | 0.91 | 0.742 | 0.747 | 0.718 | 0.74 | 0.876 | 0.89 | 0.935
CCCC(CCC)C(=O)O [Valproic acid] | 1.2 | 1.24 | 1.02 | 1.37 | 1.1 | 1.69 | 1.3 | 1.39 | 1.1 | 1.16 | 1.06 | 1.15 | 1.03 | 1.25 | 1.19 | 1.23 | 1.18 | 0.788 | 1.11 | 1.08
COc1cc2nccc(Oc3ccc(NC(=O)C4(C(=O)Nc5ccc(F)cc5)CC4)cc3)c2cc1OC | 0.913 | 0.972 | 0.962 | 1.08 | 0.897 | 0.904 | 0.921 | 1.07 | 1.02 | 1.38 | 0.975 | 0.944 | 0.926 | 1.1 | 0.876 | 1.21 | 0.883 | 1.56 | 1.01 | 2.24
CC(C)C(=O)Oc1ccc(CO)cc1C(CCN(C(C)C)C(C)C)c1ccccc1.O=C(O)/C=C/C(=O)O (stereo not given) [Fesoterodine Fumarate] | 1.21 | 1.42 | 1.3 | 1.52 | 1.4 | 1.11 | 1.65 | 1.14 | 1.13 | 1.3 | 1.13 | 1.41 | 1.08 | 1.37 | 1.47 | 1.18 | 1.3 | 1.22 | 1.34 | 0.983
Cc1coc2c1C(=O)C(=O)c1c-2ccc2c1CCCC2(C)C [Tanshinone IIA] | 0.883 | 1.04 | 0.917 | 1.17 | 1.09 | 0.887 | 1.35 | 0.982 | 0.541 | 0.858 | 0.9 | 0.859 | 0.745 | 0.912 | 0.656 | 0.6 | 0.715 | 0.891 | 0.158 | 0.476
CN1CCC(=C2c3ccccc3CCc3sccc32)CC1.O=C(O)CC(O)C(=O)O [Pizotifen Malate] | 0.894 | 1.56 | 1.12 | 1.56 | 1.3 | 1.05 | 1.53 | 1.03 | 0.757 | 0.878 | 1.01 | 0.952 | 0.91 | 1.06 | 0.958 | 1.04 | 1.01 | 1.12 | 1.02 | 1.32
COc1cc2c(Oc3ccc4[nH]c(C)cc4c3F)ccnc2cc1OCC1(N)CC1.Cl.Cl [Anlotinib (AL3818) dihydrochloride] | 0.903 | 0.927 | 0.815 | 1.01 | 0.977 | 1.24 | 1.14 | 1.38 | 1.32 | 1.72 | 0.933 | 1.22 | 0.93 | 0.905 | 0.922 | 1.07 | 1.05 | 2.3 | 0.98 | 3.19
CC12CCC(=O)C=C1CCC1C2C(O)CC2(C)C1CCC2(O)C(=O)CO (stereo not given) [Hydrocortisone] | 0.63 | 1.31 | 1.02 | 1.89 | 1.32 | 1.15 | 1.31 | 0.932 | 1.01 | 0.84 | 0.218 | 0.501 | 0.199 | 0.716 | 0.0755 | 0.311 | 0.0694 | 0.425 | 0.071 | 0.309
COc1nc(N)nc2c1ncn2C1OC(CO)C(O)C1O (stereo not given) [Nelarabine] | 0.877 | 1.09 | 0.897 | 1.13 | 0.739 | 1.07 | 0.932 | 0.776 | 0.896 | 1.01 | 0.858 | 0.9 | 0.984 | 1.03 | 0.749 | 0.926 | 0.878 | 0.72 | 0.899 | 0.761
Cl.c1ccc2c(c1)CCCC2C1=NCCN1 (stereo not given) [Tetrahydrozoline HCl] | 1.16 | 0.937 | 1.26 | 0.812 | 1.04 | 0.884 | 0.995 | 1.02 | 1.12 | 0.97 | 1.15 | 0.88 | 0.994 | 0.851 | 0.93 | 0.918 | 0.936 | 1.07 | 0.955 | 0.847
O=C(O)CCc1nc(-c2ccccc2)c(-c2ccccc2)o1 [Oxaprozin] | 1.04 | 1.14 | 1.28 | 0.954 | 1.02 | 1.14 | 1.11 | 1.02 | 0.988 | 1.15 | 1.01 | 0.823 | 0.965 | 0.788 | 0.771 | 0.727 | 0.806 | 1.01 | 0.921 | 0.886
CC(=O)OCC(=O)C1(O)CCC2C3CCC4=CC(=O)C=CC4(C)C3C(O)CC21C (stereo not given) [Prednisolone Acetate] | 0.854 | 1.3 | 1.07 | 1.39 | 1.49 | 0.953 | 1.65 | 0.944 | 0.719 | 1.13 | 0.131 | 0.551 | 0.202 | 0.372 | 0.0972 | 0.28 | 0.108 | 0.232 | 0.105 | 0.237
